In PMC9911399, “Two distinct binding modes provide the RNA-binding protein RbFox with extraordinary sequence specificity”:
Substitutions are numbered along the chain they refer to; changes in the protein carry UniProt numbers. This is one part of the list.

B1: AAUCAGC (DNA:RNA)
RNA: GGGAGACCGGAAUUCAGAUUGUCCAAUCAGCUUAAAUCCCGUCGUAGCCACCA
DNA 1: CAATCTGAATTCCGGTCTCCC
DNA 2: TGGTGGCTACGACGGGATT
B2: CGAAGAC (DNA:RNA)
RNA: B1 RNA with A25C, A26G, U27A, C28A, A29G, G30A
DNA 1: CAATCTGAATTCCGGTCTCCC
DNA 2: TGGTGGCTACGACGGGATT
B3: UAGACGG (DNA:RNA)
RNA: B1 RNA with A25U, U27G, C28A, A29C, C31G
DNA 1: CAATCTGAATTCCGGTCTCCC
DNA 2: TGGTGGCTACGACGGGATT
B4: GUUCGCU (DNA:RNA)
RNA: B1 RNA with A25G, A26U, A29G, G30C, C31U
DNA 1: CAATCTGAATTCCGGTCTCCC
DNA 2: TGGTGGCTACGACGGGATT
B5: UUUGCUC (DNA:RNA)
RNA: B1 RNA with A25U, A26U, C28G, A29C, G30U
DNA 1: CAATCTGAATTCCGGTCTCCC
DNA 2: TGGTGGCTACGACGGGATT
B6: GAGCCUA (DNA:RNA)
RNA: B1 RNA with A25G, U27G, A29C, G30U, C31A
DNA 1: CAATCTGAATTCCGGTCTCCC
DNA 2: TGGTGGCTACGACGGGATT
B7: AAGUCGU (DNA:RNA)
RNA: B1 RNA with U27G, C28U, A29C, C31U
DNA 1: CAATCTGAATTCCGGTCTCCC
DNA 2: TGGTGGCTACGACGGGATT
B8: UGUCAAG (DNA:RNA)
RNA: B1 RNA with A25U, A26G, G30A, C31G
DNA 1: CAATCTGAATTCCGGTCTCCC
DNA 2: TGGTGGCTACGACGGGATT
B9: GGCGGUA (DNA:RNA)
RNA: GGGAGACCGGAAUUCAGAUUGUCCGGCGGUAUUAAAUCCCGUCGUAGCCACCA
DNA 1: CAATCTGAATTCCGGTCTCCC
DNA 2: TGGTGGCTACGACGGGATT
B10: ACGUGGA (DNA:RNA)
RNA: B1 RNA with A26C, U27G, C28U, A29G, C31A
DNA 1: CAATCTGAATTCCGGTCTCCC
DNA 2: TGGTGGCTACGACGGGATT
B11: GACAUAA (DNA:RNA)
RNA: B9 RNA with G26A, G28A, G29U, U30A
DNA 1: CAATCTGAATTCCGGTCTCCC
DNA 2: TGGTGGCTACGACGGGATT
B12: ACGCAUG (DNA:RNA)
RNA: B1 RNA with A26C, U27G, G30U, C31G
DNA 1: CAATCTGAATTCCGGTCTCCC
DNA 2: TGGTGGCTACGACGGGATT
B13: GGAUGUC (DNA:RNA)
RNA: B9 RNA with C27A, G28U, A31C
DNA 1: CAATCTGAATTCCGGTCTCCC
DNA 2: TGGTGGCTACGACGGGATT
B14: GAGGGAC (DNA:RNA)
RNA: B9 RNA with G26A, C27G, U30A, A31C
DNA 1: CAATCTGAATTCCGGTCTCCC
DNA 2: TGGTGGCTACGACGGGATT
B15: ACGAUCG (DNA:RNA)
RNA: B1 RNA with A26C, U27G, C28A, A29U, G30C, C31G
DNA 1: CAATCTGAATTCCGGTCTCCC
DNA 2: TGGTGGCTACGACGGGATT
B16: UGUUGGG (DNA:RNA)
RNA: B1 RNA with A25U, A26G, C28U, A29G, C31G
DNA 1: CAATCTGAATTCCGGTCTCCC
DNA 2: TGGTGGCTACGACGGGATT
B17: UACUUGU (DNA:RNA)
RNA: B1 RNA with A25U, U27C, C28U, A29U, C31U
DNA 1: CAATCTGAATTCCGGTCTCCC
DNA 2: TGGTGGCTACGACGGGATT
B18: UGUCAUU (DNA:RNA)
RNA: B1 RNA with A25U, A26G, G30U, C31U
DNA 1: CAATCTGAATTCCGGTCTCCC
DNA 2: TGGTGGCTACGACGGGATT
B19: CCUGAAG (DNA:RNA)
RNA: B1 RNA with A25C, A26C, C28G, G30A, C31G
DNA 1: CAATCTGAATTCCGGTCTCCC
DNA 2: TGGTGGCTACGACGGGATT
B20: GCUGCGA (DNA:RNA)
RNA: B9 RNA with G26C, C27U, G29C, U30G
DNA 1: CAATCTGAATTCCGGTCTCCC
DNA 2: TGGTGGCTACGACGGGATT

The binders below were run against T1, RBFOX1 RRM RbFoxmut (Fox-RRM*) (Homo sapiens, UniProt Q9NWB1 109-208, R118D;E147R;N151S;E152T) (assay: EMSA; HiTS-Eq, 1 nM pool, 10 min; buffer printed only for the single-RNA assays: 10 mM Tris pH 7.5, 150 mM NaCl, 3.4 mM EDTA, 0.001% NP-40, 30 C). Conditions: tags: His6 N-terminal (pET28a); label: 5' 32P.
T1 sequence: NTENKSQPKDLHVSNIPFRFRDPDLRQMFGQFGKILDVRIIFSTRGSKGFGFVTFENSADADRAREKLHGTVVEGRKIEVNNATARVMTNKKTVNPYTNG
Summary of the method: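 A pool of RNA with 7 randomized nucleotides, 5′-radiolabelled and with DNA-annealed flanks, was equilibrated at 1 nM for 10 min in 50 µL with purified RbFox RRM, wild type or mutant, across increasing protein concentrations. Free RNA was separated by 8% native PAGE, excised, reverse-transcribed, barcoded by PCR and sequenced. Relative association constants were obtained from read-count changes of each RNA species versus the control reaction and normalised to the cognate motif.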

Binder | binding signal
B1 | 0.0705 KA relative to UGCAUGU
B2 | 0.102 KA relative to UGCAUGU
B3 | 0.0799 KA relative to UGCAUGU
B4 | 0.107 KA relative to UGCAUGU
B5 | 0.0836 KA relative to UGCAUGU
B6 | 0.0827 KA relative to UGCAUGU
B7 | 0.108 KA relative to UGCAUGU
B8 | 0.11 KA relative to UGCAUGU
B9 | 0.146 KA relative to UGCAUGU
B10 | 0.0939 KA relative to UGCAUGU
B11 | 0.115 KA relative to UGCAUGU
B12 | 0.844 KA relative to UGCAUGU
B13 | 0.295 KA relative to UGCAUGU
B14 | 0.0647 KA relative to UGCAUGU
B15 | 0.106 KA relative to UGCAUGU
B16 | 0.0997 KA relative to UGCAUGU
B17 | 0.13 KA relative to UGCAUGU
B18 | 0.0811 KA relative to UGCAUGU
B19 | 0.0788 KA relative to UGCAUGU
B20 | 0.118 KA relative to UGCAUGU
